Over roughly 4,500 sequences, “median log2 fold change of GCK-ALFA target abundance (FLAG IP / Myc IP barcode read proportion)” has its median near 0.078; the lowest 2% begin near -0.6. The list shows a part of the results.
B1: GBRAP_128_3226 (protein)
chain: STEELEERVRELLERIKEADEEEARRLARELARLIAEASVEEAEAMAEVVEELAPELSEEQLEILIDAFEEEARATDSEVALVLRDIAIIFGEELLEKEE
B2: GBRAP_117_2573 (protein)
chain: EELKKKAKEEVDKFVEDLAARLKEMKTLSPEEQAAALAQMQEETYKLLKKLIKELGKDETLELFDEAISKLDAEDYFAISTIVEDAFNRIEEEEEKEKAA
B3: GBRAP_160_4386 (protein)
chain: KEELEKLAKEIEELREEFEEEAKDLDAAETRTLAIGVLSEVAALVFENEAVSEETQDKIMEIIDEAIARLRANADAPPEEIVAITTEAFDKIIELVKEEK
B4: GBRAP_11_2854 (protein)
chain: KKEKLEEIAKLAEEAIKLLEKLKEEGVDNEELQKEIEEKLKKLLELVKKYTDEADVKLAEDALESFEKSKEDPENKQEYIDEAIAFLRVLLGNILLEIDE
B5: GBRAP_160_4358 (protein)
chain: SETAEKLIKEIKEATEEVISSIDKESLEEVAVIADGLFGEIAMEAVEDESMSDEVVDIIVEARDKIRELLKEGKDASPEEIKKGIKKITEEAIKKIKEAA
B6: GBRAP_80_6789 (protein)
chain: AEERLEAAVAEIEKVDPELAKLLREIIEIAREMGVSEETLAELAEAALKLAKVDVELAKEELEELKKELEELKEEGDSENAEATLRVYAGQMLLKVEELE
B7: GBRAP_35_5594 (protein)
chain: EDTELLFESTLDYAEALIEGIPELPVETVVALAKNLVKLAKELVKELKGNLEKLKKLAEALKKVIEAIKKHYPDNPEAQKAVEELEKALKEVEKAIKEAE
B8: GBRAP_184_5089 (protein)
chain: KTLEELVEAETEEELLKKVEEVIEKVKKEKANLTVLVKMPGLDVETALKILDILGKAKKEGWFKEATVGFAEAFTEEEADKIIEKADEQGVKVVLALNEE
B9: GBRAP_184_5163 (protein)
chain: KVLEETIKAKNLEEAKEKLKKVRERAKKTKAPLYVLLELEKPEKEILELIFKELGEILKEGLATEVVLEITSDLTEEQIDFAVEEADKAGVKLVLAIDDE
B10: GBRAP_128_3431 (protein)
chain: SQEEKVAQAKALIDAALTASTEEVYKLTKEFMKVFGTLSPEAREKVADYAISKLPQLTKEQLEAVADAIREQLPTLDPYAQELAADVLVEALNEAEELEE
B11: GBRAP_11_2888 (protein)
chain: KKEKLKELAELARKIAELIEKLLEEGTDNEELLKEIEKLLKELEKLTKEYADKGSQKLTEIAKELFKKALEDPENRKEYLEELLAAVRVLEGDYLLEYEE
B12: GBRAP_160_4271 (protein)
chain: SEEREELIEDAEEDREEILELVDEITPEEIRTFAVTEMGSHLLEAIDLGLVTDEEEDKLLQIIDDLEKELKAAENATKEEIKKIITEHYDKFIELLKKAK
B13: GBRAP_52_6372 (protein)
chain: REAEARAIVDELLALAEAGDEEGVEALVREVLASGDGALQAAVLREIRRRLEARDHPDPEALLRLAAIVADEVLEAEVDSPEVWAALTALAAAALALERA
B14: GBRAP_160_4621 (protein)
chain: SEKLKKALELVEEAKEEVLSLIPEVSAEQFAHFLDAEFGSVILYLLEEGYISEETADKMMEVVDEAVAYILANPDLSDEERRALVEETAEKIKEIIKENS
B15: GBRAP_184_5162 (protein)
chain: AVLERVLDAENLEELEAKLEEIRAEAAATKAALLVDLRLPEPKKEMLEAALRRLGEILREGLATDVTVHILNDLTEEQVDFAVELADEAGVRLVLELPEE
B16: GBRAP_52_6379 (protein)
chain: MVEEAKKLLKEAIELIMKGGPLEEVKEIAKKILEFDEETIEEAAKLLAEEILELSPEEAEAALDAAIELADILIEEGLPEEVASLIEAEIGKAAYEVLQR
B17: GBRAP_184_5203 (protein)
chain: MLKEYTIEFNNLEELKEKLKELLEEVKGFKGTLYIHVKAPEITKEMAEEIIKMVKEIKENGYATEIIVDIDGKVSEEVEDLLLEEFEKIGAKVVIALSEE
B18: GBRAP_184_5096 (protein)
chain: KTLERRIEAETLEEARAQIEAAVAEAAAAGAALTLLLDLEGISEEEIEELVRWLGELAAAAGVPAVTLGIDQLLSEEAADRVIATADELGIRLVLALPEE
B19: GBRAP_78_6625 (protein)
chain: EIKKLLEKALKKVEEAAKLATKIPSEEGIEILDHLIDAFEYIEEAIEEGGDLEKLEKALKHLEEALKEIEKLNNPELEELKKLVKEAIKLLKKAIELKKK

Target: GABARAP, O95166
Sequence (O95166 whole entry, the tested form may be a part): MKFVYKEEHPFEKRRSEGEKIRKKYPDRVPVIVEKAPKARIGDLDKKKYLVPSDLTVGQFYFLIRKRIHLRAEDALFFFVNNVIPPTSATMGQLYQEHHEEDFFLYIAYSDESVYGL
Assay: median log2 fold change of GCK-ALFA target abundance (FLAG IP / Myc IP barcode read proportion) (log2 ratio); each designed protein is fused to an ALFA-tag nanobody in HEK293 cells to bring the named protein to FLAG-tagged glucokinase (GCK); Myc marks an untargeted standard; higher = target protein stabilised (more abundant)
Settings: target protein: 3xFLAG-MCP-GCK-ALFA reporter; HEK293 landing pad (RPLP)
How it was run: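 An ALFA-nanobody-fused binder library was recombined into HEK293 landing-pad cells and induced with 2 μg mL^−1 doxycycline. Cells were transfected with a plasmid expressing a FLAG-tagged target and a Myc-tagged standard. After 48 h, lysates underwent anti-FLAG and anti-Myc immunoprecipitation, and circular RNA barcodes were reverse transcribed, amplified and sequenced. Target abundance is the per-binder median log2 ratio of FLAG to Myc barcode read proportions. Barcodes needed ≥10^−7 proportion in both replicates, binders ≥3 barcodes per replicate, and a 10^−6 pseudocount was added; the two replicates were pooled.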

| Binder | median log2 fold change |
| --- | --- |
| B1 | -0.17 |
| B2 | 0.24 |
| B3 | 0.077 |
| B4 | 0.322 |
| B5 | 0.411 |
| B6 | 0.0716 |
| B7 | 0.389 |
| B8 | 0.024 |
| B9 | 0.0688 |
| B10 | 0.0253 |
| B11 | -0.0328 |
| B12 | -0.0457 |
| B13 | -0.638 |
| B14 | -0.336 |
| B15 | 0.179 |
| B16 | -0.103 |
| B17 | 0.00126 |
| B18 | 0.0152 |
| B19 | 0.283 |
